# In the RNAGym collection of RNA variant scans (doi:10.7554/elife.90254):
# The source gives no read counts; variants with many changes may rest on few reads.
# B1: LINE1-mini (parent)
# chain: GGCAGAGCUCAACACAGCGUGGCAAAGUGGCUGUGGCUAGACUGCC
# Variants of: B1
# Test: self-cleavage, relative activity (ratio to wild type); higher = more cleavage; in vitro, sequencing; the parent is a self-cleaving ribozyme
row,Variant,self-cleavage
1,GGCAGAGCUCAACACAGCUUGGCAAUUUGGCUGUGUCUAGACUGCG [G19U A26U G27U G36U C46G],0.04
2,GGCAGAGCUCAACACAGCUUGGCAAUGGGGCUGUGGCUAGACUGCC [G19U A26U U28G],0.09
3,GGCAGAGCUCAACACAGCUUGGCAAAGUGGCUGUGGCUGCACUGCC [G19U A39G G40C],0.08
4,GGCAGAGCUCAACACAGCUUGGCAAAGUGGCUGUGGCUGGACUUCC [G19U A39G G44U],0.1
5,GGCAGAGCUCAACACAGCUUGGCAAAGUGGCUGUGGCUAGCCUGAU [G19U A41C C45A C46U],0.01
6,GGCAGAGCUCAACACAGCUUGGCAAAGUGGCUGUGGCUAGGCUGAC [G19U A41G C45A],0.03
7,GGCAGAGCUCAACACAGCUUGGCAAAGUGGCUGUGGCUAGUGCGCC [G19U A41U C42G U43C],0
8,GGCAGAGCUCAACACAGCUUGGAUAAGUGGCCAUGGCUAGACUGCC [G19U C23A A24U U32C G33A],0.04
9,GGCAGAGCUCAACACAGCUUGGAAACCUGGCUGUGGCUAGACUGCC [G19U C23A A26C G27C],0.34
10,GGCAGAGCUCAACACAGCUUGGUAAAGUGGCUGUGGGUACACUGCC [G19U C23U C37G G40C],0.02
11,GGCAGAGCUCAACACAGCUUGGUAAAGUCGCUGUGGCUAGACUGCC [G19U C23U G29C],0.77
12,GGCAGAGCUCAACACAGCUUGGUAAAGUGGCUUUGGCUGGACUGCC [G19U C23U G33U A39G],0.07
13,GGCAGAGCUCAACACAGCUUGGUAAAGUGGCUGUGGCUACACUACC [G19U C23U G40C G44A],0.12
14,GGCAGAGCUCAACACAGCUUGGCAAAGUGGAUGUGGGUAGACUGCC [G19U C31A C37G],0.01
15,GGCAGAGCUCAACACAGCUUGGCAAAGUGGAUGUGGUUAGACUGCC [G19U C31A C37U],0.04
16,GGCAGAGCUCAACACAGCUUGGCAAAGUGGAUGUGGCUAGACUGCA [G19U C31A C46A],0.08
17,GGCAGAGCUCAACACAGCUUGGCAAAGUGGAUGUGGCUAAACUGCC [G19U C31A G40A],0.01
18,GGCAGAGCUCAACACAGCUUGGCAAAGUGGGUGUGGCUACACUGCC [G19U C31G G40C],0.03
19,GGCAGAGCUCAACACAGCUUGGCAAAGUGGGUGCGGCUAGACUGCA [G19U C31G U34C C46A],0.02

row,Variant,self-cleavage
1,GGCAGAGCUCAACACAGCUUGGCAAAGUGGUUUUGGCUAGACUGCC [G19U C31U G33U],0.09
2,GGCAGAGCUCAACACAGCUUGGCAAAGUGGUUGUGACUAGAAUCCC [G19U C31U G36A C42A G44C],0
3,GGCAGAGCUCAACACAGCUUGGCAAAGUGGUUGAGGCUAGACUGCC [G19U C31U U34A],0.01
4,GGCAGAGCUCAACACAGCUUGGCAAAGUGGUUGUGGCUAGACCGCC [G19U C31U U43C],0.03
5,GGCAGAGCUCAACACAGCUUGGCAAAGUGGCUGUGGAUAGACUGGC [G19U C37A C45G],0.03
6,GGCAGAGCUCAACACAGCUUGGCAAAGUGGCUGUGGCUAGAUUGAA [G19U C42U C45A C46A],0.02
7,GGCAGAGCUCAACACAGCUUAGCUAAGUGGCUGUGGCUAGACUGCC [G19U G21A A24U],0.82
8,GGCAGAGCUCAACACAGCUUAGCAUAGUGGCUGUGGCUAGACUGCC [G19U G21A A25U],0.76
9,GGCAGAGCUCAACACAGCUUAGCAUUGAGGCUGUGGCUAGACUGCC [G19U G21A A25U A26U U28A],0.13
10,GGCAGAGCUCAACACAGCUUAGCAUAGUGGCUGUGGCUAGACUGCU [G19U G21A A25U C46U],2.67
11,GGCAGAGCUCAACACAGCUUAGCAAAGUGGCUGUGGAUAGACUGCC [G19U G21A C37A],0.04
12,GGCAGAGCUCAACACAGCUUAGCAAAUUGGCUGUGGCUAUACUGCC [G19U G21A G27U G40U],0.05
13,GGCAGAGCUCAACACAGCUUAGCAAAGUGGCUGAGGCUACACUGCC [G19U G21A U34A G40C],0.03
14,GGCAGAGCUCAACACAGCUUCGCGAAGUGGCUGUGGCUAGACUGCC [G19U G21C A24G],0.28
15,GGCAGAGCUCAACACAGCUUCGCAAUGUGGCUGUGGCUAGACUGCC [G19U G21C A26U],0.3
16,GGCAGAGCUCAACACAGCUUCGCAAAGUGGCUGUGGCUAGACUGGC [G19U G21C C45G],1.64
17,GGCAGAGCUCAACACAGCUUCGCAAAGUGUCUGUUACUAGACUGCC [G19U G21C G30U G35U G36A],0.69
18,GGCAGAGCUCAACACAGCUUUGCAAAGUUGCUGUGGCUAGACUGCC [G19U G21U G29U],0.36
19,GGCAGAGCUCAACACAGCUUUGCAAAGUGGCUGUGGCUAAACUGCC [G19U G21U G40A],0.03

row,Variant,self-cleavage
1,GGCAGAGCUCAACACAGCUUGACAACGUGGCUGUGGCGAGACUGCC [G19U G22A A26C U38G],0.03
2,GGCAGAGCUCAACACAGCUUGACAAAGUGGCUGUGGCUAUACUGCC [G19U G22A G40U],0.03
3,GGCAGAGCUCAACACAGCUUGCCUAAGUGGCUGUGGCUAGACUGCC [G19U G22C A24U],0.23
4,GGCAGAGCUCAACACAGCUUGCCAUAGUGGCUGUGGCUAGACUGCC [G19U G22C A25U],0.52
5,GGCAGAGCUCAACACAGCUUGCCAAAGUGGCUGUGGCUAGACUGUC [G19U G22C C45U],0.37
6,GGCAGAGCUCAACACAGCUUGCCAAACUGGCUGUGGCUAGACUUCC [G19U G22C G27C G44U],0.62
7,GGCAGAGCUCAACACAGCUUGUCAAAGUGUCUGUGGCUGGACUACC [G19U G22U G30U A39G G44A],0.09
8,GGCAGAGCUCAACACAGCUUGGCAAAAGGGCUGUGCCUAGACUGCC [G19U G27A U28G G36C],0.05
9,GGCAGAGCUCAACACAGCUUGGCAAACUGGCUGCGGAUAGACUGCC [G19U G27C U34C C37A],0.02
10,GGCAGAGCUCAACACAGCUUGGCAAACUGGCUGUGGCAAAACUGCC [G19U G27C U38A G40A],0.03
11,GGCAGAGCUCAACACAGCUUGGCAAAUUGGCUGUGGCUAGACAGCC [G19U G27U U43A],0.05
12,GGCAGAGCUCAACACAGCUUGGCAAAGUAGCUGUGGCUUGAAUGCC [G19U G29A A39U C42A],0.21
13,GGCAGAGCUCAACACAGCUUGGCAAAGUAGCUGUGGCUAGGCUGCC [G19U G29A A41G],0.14
14,GGCAGAGCUCAACACAGCUUGGCAAAGUAGCUGUGGCUAGAAUGCC [G19U G29A C42A],0.35
15,GGCAGAGCUCAACACAGCUUGGCAAAGUAGCUGUGGCUAGACUGCG [G19U G29A C46G],0.07
16,GGCAGAGCUCAACACAGCUUGGCAAAGUAGCUGUGGCUACACUGCG [G19U G29A G40C C46G],0.01
17,GGCAGAGCUCAACACAGCUUGGCAAAGUUGCUGUGGUUUGACUGCC [G19U G29U C37U A39U],0.07
18,GGCAGAGCUCAACACAGCUUGGCAAAGUUGCUCUGGCUAGACUGCC [G19U G29U G33C],0.03
